The campaign covered roughly 410,000 compounds. About 5,000 (1.2%) were called active. The shares of active, inactive and inconclusive entries below differ from those in the screen. The call rests on the fitted dose curve; in most records, active means well fitted inhibition curve with a large enough effect; inconclusive means small, poorly fitted or top-dose-only effect; inactive means no such curve, though single readings can be large or run the other way. A potency beside an inconclusive call is a rough fit, not a confirmed value.
Assay: qHTS for Inhibitors of TGF-b; further: nearly all actives have a fitted effect of over 65% in size
Settings: HepG2 CAGA-GFP TGF-b/SMAD3 reporter, GFP fluorescence, 18 h, TGF-beta stimulated, 500 pg/mL final; series mostly up to 46.1 µM; activity, negative = inhibition: at the top concentration
How it was run: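 Inhibition of TGF-beta-driven CAGA-GFP reporter expression in HEPG2 cells is measured by cellular GFP fluorescence after 18 h stimulation with 500 pg/mL recombinant TGF-beta in 1% FBS medium at 37 degrees C.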
For `COc1ccc(OC2C(=O)N(Cc3ccc4c(c3)OCO4)C2c2cccs2)cc1` (configuration not stated), the Potency was inconclusive: 22.4 µM [inhibitor, partial curve, poor fit].
In the case of `CCN1C(=O)[C@H]2[C@@H](c3ccc(-c4ccccc4)cc3)N[C@@](C)(C(=O)OC)[C@H]2C1=O`, the Potency is reported as inconclusive: 4.47 µM [inhibitor, single point].
For `O=c1c2sc(-c3ccccc3)cc2nc2n1CCCCC2`, the “activity, negative = inhibition” value was inactive: 0%.
For `COc1ccc(N/C(N)=N/c2nc(CSc3nnc(C)s3)cc(=O)[nH]2)cc1`, the “activity, negative = inhibition” value was inactive: -26.6%.
With `CC(=O)Oc1ccc(Cl)cc1/C=C/c1ccc2ccccc2n1` the Potency was inconclusive: 17.8 µM [inhibitor, single point].
In the case of `CCOC(=O)CC(NCc1ccc(OC)c(OCC)c1)c1ccc(C)cc1` (configuration not stated), the “activity, negative = inhibition” value is reported as inactive: -15.4%.
In the case of `Cc1nnc(-c2ccc(Cl)cc2)[nH]c1=O`, the “activity, negative = inhibition” value is reported as inactive: -1.19%.
With `CC1CCCN(C(=O)c2ccc3c(c2)C(=O)N(CCC2=CCCCC2)C3=O)C1` (configuration not stated) the Potency was inconclusive: 17.8 µM [inhibitor, single point].
For `COc1cc2c(c(Br)c1N)-c1cc(Br)c(N)cc1C2=O`, the Potency was inconclusive: 0.631 µM [inhibitor, full curve].
With `Cc1ccc(C2(C)NC(=O)N(CC(=O)Nc3ccc(S(=O)(=O)Nc4nccs4)cc3)C2=O)cc1` (configuration not stated) the Potency was inconclusive: 6.31 µM [inhibitor, single point].
In the case of `CCOC(=O)c1c(NC(=O)/C=C/C(=O)O)sc(C)c1-c1ccc(F)cc1`, the Potency is reported as inconclusive: 22.4 µM [inhibitor, single point].
For `COc1ccc(/C=C(/C#N)c2nc(-c3ccc(-c4ccccc4)cc3)cs2)cc1`, the Potency was inconclusive: 3.98 µM [inhibitor, partial curve, poor fit].
For `CCN(CCn1cccn1)C(=O)c1ccc2nc(Cc3ccc(OC)cc3)oc2c1`, the “activity, negative = inhibition” value was inactive: 6.35%.
For `Cc1c(Cl)c([N+](=O)[O-])nn1CC(=O)NC1CCCCC1`, the Potency was inconclusive: 6.31 µM [inhibitor, partial curve].
For `O=C(Nc1ccc(NC(=O)c2cccs2)cc1)c1ccc(Br)cc1`, the Potency was inconclusive: 3.16 µM [inhibitor, partial curve, poor fit].
For `CCN(CC)S(=O)(=O)c1ccc(N2CCCCC2)c(NC(=O)C2CCN(C(=O)c3ccc(F)cc3)CC2)c1`, the “activity, negative = inhibition” value was inactive: -22.5%.
In the case of `O=C(CSc1nc2ccccc2o1)Nc1nc2c(s1)CCCC2`, the Potency is reported as inconclusive: 12.6 µM [inhibitor, partial curve, poor fit].
For `Cc1cnn(C(=O)c2cc(-c3ccccc3)nc3ccccc23)c1`, the Potency was inconclusive: 25.1 µM [inhibitor, single point].
For `Nc1ccc(C(=O)OCC(=O)Nc2ccc3c(c2)OCO3)cc1[N+](=O)[O-]`, the Potency was inconclusive: 17.8 µM [inhibitor, single point].
With `O=C(O)c1n[nH]c2ccccc12` the Potency was inconclusive: 3.16 µM [inhibitor, single point].
In the case of `CCOC(=O)c1ccccc1NS(=O)(=O)c1c(-c2ccc(C)cc2)csc1C(=O)OC`, the Potency is reported as inconclusive: 15.8 µM [inhibitor, partial curve, poor fit].
With `CC(=O)Nc1ccc(S(=O)(=O)Nc2cccc(S(=O)(=O)N(C)c3ccccc3)c2)cc1` the “activity, negative = inhibition” value was inactive: -2.12%.
In the case of `Cc1[nH]n(-c2ccccc2)c(=O)c1/C=N/N1CCOCC1`, the “activity, negative = inhibition” value is reported as inactive: 1.8%.
With `CSc1cccc(NC(=O)Cn2cccc2)c1` the Potency was inconclusive: 3.98 µM [inhibitor, single point].
With `Oc1c(Cl)cc(Cl)cc1CNc1nc2ccccc2[nH]1` the “activity, negative = inhibition” value was inactive: -10.8%.
With `O=C(Nc1ccc(Cl)c(Cl)c1)Nc1ccc(Br)cc1F` the Potency was inconclusive: 7.94 µM [inhibitor, partial curve, poor fit].
In the case of `CSc1nnc(-c2cccc(NC(=S)NN)c2)o1`, the Potency is reported as inconclusive: 17.8 µM [inhibitor, single point].
In the case of `CN(C(=N)N)c1ccc(/C=C2\C=Cc3ccccc32)cc1`, the Potency is reported as inconclusive: 17.8 µM [inhibitor, single point].
With `CCN(C(=O)Cn1ncc2c1-c1cc(C)ccc1OC2)c1cc(Cl)ccc1OC` the Potency was inconclusive: 3.55 µM [inhibitor, partial curve, poor fit].
For `O=C(Nc1ccccc1)c1nc[nH]c1C(=O)N1CCN(c2ccccc2)CC1`, the “activity, negative = inhibition” value was inactive: -11.7%.
In the case of `O=C1C=C(N(CCO)Cc2ccccc2)c2ccccc2C1=O`, the Potency is reported as active: 8.91 µM.
In the case of `CC(=O)N1c2ccc(S(=O)(=O)N3CCC(C(=O)NCc4ccc(Cl)cc4)CC3)cc2CC1C` (configuration not stated), the Potency is reported as inconclusive: 35.5 µM [inhibitor, single point].
With `O=[N+]([O-])c1ccc(COc2ccc(-c3[nH]ncc3-c3ccccc3)c(O)c2)cc1` the Potency was inconclusive: 35.5 µM [inhibitor, single point].
In the case of `Cn1cc([C@@H]2C[C@H]3CN(Cc4cccc(Cl)c4)C(=O)[C@]34CCCN24)c2ccccc21`, the Potency is reported as inconclusive: 15.8 µM [inhibitor, single point].
In the case of `Cc1ccc(S(=O)(=O)N2[C@@H](c3ccc(C(C)(C)C)cc3)C(C(=O)O)=CC[C@H]2c2ccc(Cl)c(Cl)c2)cc1`, the Potency is reported as inconclusive: 7.08 µM [inhibitor, partial curve, poor fit].
In the case of `Cc1nnc(N2CCN(c3ccccc3F)CC2)c2c1nnn2Cc1ccc(F)cc1`, the “activity, negative = inhibition” value is reported as inactive: -4.97%.
For `CCOc1ccccc1NC(=O)C(NS(=O)(=O)c1cccc2nsnc12)c1ccccc1` (configuration not stated), the Potency was inconclusive: 0.794 µM [inhibitor, partial curve, poor fit].
For `O=C(Nc1cc(Cl)cc(Cl)c1)c1cccc(OC(F)F)c1`, the Potency was inconclusive: 25.1 µM [inhibitor, single point].
With `COc1ccc(NC(=O)CSc2ccccc2)cc1S(=O)(=O)N1CCCCC1` the Potency was inconclusive: 12.6 µM [inhibitor, single point].
In the case of `COc1ccc(C2=NCCn3c2c2ccc(C(F)(F)F)cc2[n+]3[O-])cc1`, the “activity, negative = inhibition” value is reported as inactive: -5.11%.
With `N#Cc1ccc(CN2CCN(CC(=O)NCCc3ccc(Cl)cc3Cl)CC2)cc1` the Potency was inconclusive: 22.4 µM [inhibitor, partial curve, poor fit].
For `COc1cccc2c(=O)cc(C)n(CC(=O)Nc3ccccc3C)c12`, the “activity, negative = inhibition” value was inactive: -13.8%.

From PubChem BioAssay AID588855 (National Center for Advancing Translational Sciences (NCATS), 2011)
On the % scale 0 is the no-effect control and ±100 the full control effect; potency means the concentration at half of the fitted maximal effect; tags describe the fitted curve by direction and shape.
